Binding signal data for 54 sequences are collected here from paper PMC7819943, “Rice protein-binding microarrays: a tool to detect cis-acting elements near promoter regions in rice”.

The list shows a part of the results.

This test addresses T1, OsWOX13 (Oryza sativa, UniProt Q5QMM3 1-267).
T1 sequence: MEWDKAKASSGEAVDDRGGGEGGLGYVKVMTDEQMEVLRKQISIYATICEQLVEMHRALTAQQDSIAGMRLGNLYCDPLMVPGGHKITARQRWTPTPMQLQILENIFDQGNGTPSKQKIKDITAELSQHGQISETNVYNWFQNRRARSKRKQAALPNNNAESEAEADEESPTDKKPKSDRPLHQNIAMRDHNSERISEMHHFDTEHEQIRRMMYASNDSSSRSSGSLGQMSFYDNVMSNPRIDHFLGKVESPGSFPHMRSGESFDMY
Description: protein-binding microarray (RPBM); PBS, 2% BSA, 51.3 ng/ul salmon testes DNA, 50 uM zinc acetate, 200 nM TF, 25 C, 1 h; high values mean tight binding. To be noted: protein: recombinant; tags: N-terminal polyhistidine and DsRed monomer fusion (pET32a); label: CyDye5-dUTP incorporated in the synthesized complementary strand; 3' TTTTT single-stranded linker to array surface; dsDNA, one strand shown. The gist of the method: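 Polyhistidine-tagged DsRed fusions of transcription factors, joined at the N-terminus, were expressed in E. coli BL21-CodonPlus and isolated on Ni–NTA. They were incubated at 200 nM for 1 h at 25 °C on a custom Agilent array, double-stranded and BSA-blocked, in PBS with 2% BSA, salmon testes DNA and 50 µM zinc acetate. The binding signal is per-feature fluorescence intensity (arbitrary units) read on an Axon 4000B scanner after washing.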
With “CTAAATTTACATTAGATATCTGTTTTGAATGGCGATTAAGCGGAGTCACCTAGTGCAG”, the binding signal is 30900 fluorescence intensity (a.u.).

With “CATCGTAATGATTAAATTAAAGGAGAAGAAAAGGGTAAGACGGAGTCACCTAGTGCAG”, the binding signal is 12700 fluorescence intensity (a.u.). Take “CAGATTAGATTGGTTGAGATTATTATTCTTGCGTGACAAGCGGAGTCACCTAGTGCAG”: the binding signal is 40600 fluorescence intensity (a.u.). For “CAAGGATAATTAAATTCATGATGGATGGATGAATTGTATACGGAGTCACCTAGTGCAG” the value was 19700 fluorescence intensity (a.u.); for “ATTTAATACTCTAAATTAGTGTTTAAATACAGGGACTAAACGGAGTCACCTAGTGCAG”, 7520 fluorescence intensity (a.u.); for “ATGATAATTTTATCCGCAAATTACTTACGGCTCCGGGAGACGGAGTCACCTAGTGCAG”, 13900 fluorescence intensity (a.u.).

Consider “TCGATGACTTCAAACAAATTGTTAACGACGTGCCAGTAAACGGAGTCACCTAGTGCAG”, for which the binding signal is 4530 fluorescence intensity (a.u.). In the case of “AAAGGGAGATTATTTATATTAATTCCTGCTTAGCTGCAAACGGAGTCACCTAGTGCAG”, the binding signal was 4080 fluorescence intensity (a.u.). With “CATGCTAAATTGAGACGATCGGATTCCAAACTTTAGCTCACGGAGTCACCTAGTGCAG”, the binding signal is 13600 fluorescence intensity (a.u.).

On to “ACTATGATTGTGCAGGACACTTGTAGGCCACAGGTAGTAGCGGAGTCACCTAGTGCAG”, for which the binding signal is 28600 fluorescence intensity (a.u.). Turning to “TCCAATTGATTGCAAATCGATTCCTCACTCCTCTCTTATCCGGAGTCACCTAGTGCAG”, the binding signal is 57400 fluorescence intensity (a.u.).

With “ACGACCTTAATTTAATAAACCGAGCCAACAATAAGTGAGCCGGAGTCACCTAGTGCAG”, the binding signal is 9880 fluorescence intensity (a.u.). For “ATCCATAATTGGTCGATGCAAAGTCAAAACACCAGCAAACCGGAGTCACCTAGTGCAG”, the binding signal was 14400 fluorescence intensity (a.u.). “CAAAGTAATTAATTAGTGGATTGATAGAAGTTCAATCGACCGGAGTCACCTAGTGCAG”: the binding signal was 37400 fluorescence intensity (a.u.).

On to “GCTGAGCCTTGATTGTTTCTTCATAGCTCCTTCCTCTTTCCGGAGTCACCTAGTGCAG”, for which the binding signal was 10000 fluorescence intensity (a.u.).

“ACCTGAAATGATTGATGTCAGATCAATGCACTTTCATTATCGGAGTCACCTAGTGCAG”: the binding signal was 24100 fluorescence intensity (a.u.). Regarding “TTGTAAAATTATATTTATTTAAGATGAAGGGAGTACTATCCGGAGTCACCTAGTGCAG”, the binding signal is 4920 fluorescence intensity (a.u.). The result for “TATTTCCTTATTAATTTATCATATAAATGGGTTTATGGGTCGGAGTCACCTAGTGCAG” reads 4500 fluorescence intensity (a.u.); that for “ACGCGCCGATTCCGAAGAAATCAATCAACCAACTACTAGGCGGAGTCACCTAGTGCAG”, 4480 fluorescence intensity (a.u.); that for “GTCAATTCATATAATAATTATCTACAAATACATACTACACCGGAGTCACCTAGTGCAG”, 5800 fluorescence intensity (a.u.). The result for “AATGACAAAGTGGCTATGATTGCGTGTTTCATATTAGCATCGGAGTCACCTAGTGCAG” reads 18800 fluorescence intensity (a.u.). The result for “TTAAACAGCTTAATATCAAAAGACACAAATACAACTGCATCGGAGTCACCTAGTGCAG” reads 8680 fluorescence intensity (a.u.); that for “AAATTACTAATTGAAAACTAAAAGTCCAAGATTTATTACGCGGAGTCACCTAGTGCAG”, 36400 fluorescence intensity (a.u.). As for “AAAATTAAATAAGACAAATGATTAAAGTTGAATACGGAGACGGAGTCACCTAGTGCAG”, the binding signal was 7100 fluorescence intensity (a.u.). In the case of “ATTCATGTACCTTTGCTTGTGATTGGCATTGACGTGAGAACGGAGTCACCTAGTGCAG”, the binding signal was 7120 fluorescence intensity (a.u.). The result for “AAAAGCTTTGATTTGAACAAACTTAGCCAAAGTTTTGGCACGGAGTCACCTAGTGCAG” reads 7900 fluorescence intensity (a.u.). For “CATACACTCAATCAGAGAGAGATTGTTGGTAGCTAGGTAGCGGAGTCACCTAGTGCAG”, the binding signal is 12200 fluorescence intensity (a.u.). For “CCGTTTGGATTGACTTATCAACAGAGTGCTTCAATCTATACGGAGTCACCTAGTGCAG”, the binding signal is 8190 fluorescence intensity (a.u.). For “GATTGATAATTTCAGAACAGTCTCTTTTGTTCACTAGAGCCGGAGTCACCTAGTGCAG” the value was 7610 fluorescence intensity (a.u.); for “GAATTGATGGAATTTAGGCCGCCAGCAAGCAAAGACCGAGCGGAGTCACCTAGTGCAG”, 13300 fluorescence intensity (a.u.).

“GCTGTAAATTATATTTCCTGATCTTGTCAGTGCTGGTCTACGGAGTCACCTAGTGCAG”: the binding signal was 20500 fluorescence intensity (a.u.). As to “TTTTGATTGAAGACACACCTATTGTCGCGAATACTGCTAACGGAGTCACCTAGTGCAG”, the binding signal is 40500 fluorescence intensity (a.u.).

Consider “GCTATGATTTGACAATGCGATGCTACAGTAAACATTTGCTCGGAGTCACCTAGTGCAG”, for which the binding signal is 21900 fluorescence intensity (a.u.).

With “TCAGAAATTGAATCCGATTAGGATTACTATTTGTAGGATCCGGAGTCACCTAGTGCAG”, the binding signal is 14900 fluorescence intensity (a.u.).

As to “CCGTTAGGGATATTGATTATCTTTTGTAACCCGGACTCCTCGGAGTCACCTAGTGCAG”, the binding signal was 4300 fluorescence intensity (a.u.).

As to “TCAGTATGTTAATTAATCAAACATGGGAAATAGCATGGAACGGAGTCACCTAGTGCAG”, the binding signal was 17400 fluorescence intensity (a.u.). As to “TCCATCGACATGTGATTAATTTCCAAGTTAAAGTGTGAAGCGGAGTCACCTAGTGCAG”, the binding signal was 10100 fluorescence intensity (a.u.). In the case of “GCTGATTGGCTCGCCATGGCTATAAATCTCGAGGTCGGTTCGGAGTCACCTAGTGCAG”, the binding signal is 37200 fluorescence intensity (a.u.). “TGGATGATTTTAGTGATAGATTCTTTGTCCCGATACGAAACGGAGTCACCTAGTGCAG”: the binding signal is 23900 fluorescence intensity (a.u.). The result for “GTATAATTAATTAAGCAGTGAAGTGAATCGATCTGATTAACGGAGTCACCTAGTGCAG” reads 35800 fluorescence intensity (a.u.); that for “ATACATTTGCAATTTACTATAAATTTTGAAATATGTCCCTCGGAGTCACCTAGTGCAG”, 5200 fluorescence intensity (a.u.). On to “ATCAAAATAAATTGACATATAATATGTCACTCCACCGATACGGAGTCACCTAGTGCAG”, for which the binding signal was 8080 fluorescence intensity (a.u.).

With “TGAATGATTAAGATTTAAAGATGTCTTTTAGTGGATGGGACGGAGTCACCTAGTGCAG”, the binding signal is 20200 fluorescence intensity (a.u.).

Regarding “GCTTGACACCGATCCATTTGACGAGCTCGCATTTCCTTCACGGAGTCACCTAGTGCAG”, the binding signal is 3260 fluorescence intensity (a.u.). As for “TGCTGATTGGCGCTCCCCACGTTGGCAAGATTAGGTGATCCGGAGTCACCTAGTGCAG”, the binding signal is 39100 fluorescence intensity (a.u.). The result for “ACCTATTATGATCGGTTTTGATTAGTTAAGAGATGCCCAGCGGAGTCACCTAGTGCAG” reads 8030 fluorescence intensity (a.u.); that for “CCAAATTAGCCAAATCATCATCGTCATCCGAGACTTGAGCCGGAGTCACCTAGTGCAG”, 38400 fluorescence intensity (a.u.). For the sequence “TAGCAATTACATGGAATGTTGAAGTCTTCTATTGCATTGTCGGAGTCACCTAGTGCAG”, the binding signal was 5180 fluorescence intensity (a.u.). “TTCTAGTACCACTAATTTGCAGTCAAGCCTCCTGCCCTCTCGGAGTCACCTAGTGCAG”: the binding signal was 5020 fluorescence intensity (a.u.). For “CGCTGATGGAGTCAAATTGCACCGGTTTTAAGAGTTAGGGCGGAGTCACCTAGTGCAG” the value was 28200 fluorescence intensity (a.u.); for “AAATTAAATTAAATTAAATCGAACTGAATACTACATGTCGCGGAGTCACCTAGTGCAG”, 33100 fluorescence intensity (a.u.); for “GTTGAATGAATATATGATTTGTCACTGATGCTCACTACTACGGAGTCACCTAGTGCAG”, 27600 fluorescence intensity (a.u.). The result for “CTGAATTAATTATGGCTCGTCCAACCGCGCGTACTGTACTCGGAGTCACCTAGTGCAG” reads 30200 fluorescence intensity (a.u.); that for “ATTATATCCTTAACTGGGCCTGAACTCCAATCAACCCAACCGGAGTCACCTAGTGCAG”, 3320 fluorescence intensity (a.u.).
